# Test results from PubChem BioAssay AID1345083 (National Center for Advancing Translational Sciences (NCATS), 2018).
# Where “and” joins values, the source holds several entries; their conditions need not be identical. Equal entries are not always repeated. Screen size: about 94,000 compounds; about 6,200 (6.6%) were called active. Inconclusive means that the source gave no clear call. Such entries were picked first, then a sample of the others. The call rests on the fitted dose curve; in most records, active means well fitted inhibition curve with a large enough effect; inconclusive means small, poorly fitted or top-dose-only effect; inactive means flat fitted curve, though single readings scatter. Potencies of inconclusive entries are doubtful fits and often do not repeat.
# Assay: Cytotoxic Profiling in HEK 293 Cell Line of Diverse Libraries Using Quantitative High-Throughput Screening; further: nearly all actives have a fitted effect of over 60% in size
# Settings: HEK 293 viability, ATP luminescence (CellTiter-Glo), 48-72 h; activity change, negative = cytotoxicity: at 115 µM (top of the series) unless noted; series mostly up to 115 µM
# In short: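 CellTiter-Glo luminescence (cellular ATP) was read after 48 or 72 hr of compound exposure at 37 degree Celsius. Cells were HEK 293 plated at 250 cells/well.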
# On the % scale 0 is the no-effect control and ±100 the full control effect; potency means the concentration at half of the fitted maximal effect; tags describe the fitted curve by direction and shape.
Compound,"activity change, negative = cytotoxicity",Potency,outcome
COc1ccc(C(=O)NC2CCN(C(=O)N3CC4CC(C3)[C@H]3CCCC(=O)N3C4)CC2)cc1F (some centres undefined),inactive: 1.81%,–,–
COc1ccc(Nc2ccnc(N3CCCC(C(=O)NC4CC4)C3)n2)cc1 (centres undefined),–,"inconclusive: 50.1 µM [inhibitor, partial curve, poor fit]",–
O=C(c1ccc(Cl)nc1)N1CCC2(CC1)Cc1ccccc1NC2=O,–,"inconclusive: 50.1 µM [inhibitor, partial curve, poor fit]",–
N#Cc1cccc(C(=O)N2CCC(n3cc(-c4nc(-c5ccccc5)no4)nn3)CC2)c1,–,"inconclusive: 35.5 µM [inhibitor, partial curve, poor fit]",–
Cc1ccsc1[C@@H]1CCN(Cc2ccc(-c3ccn[nH]3)o2)C[C@H]1O,inactive: -10.5%,–,–
O=C(NCc1cccc(C(F)(F)F)c1)C1CCN(c2ccnc3ccnn23)CC1,–,active: 35.5 µM,–
CN1CCCCCC(O)c2cc(C(=O)NCCC3=CCCCC3)ccc21 (centres undefined),–,"inconclusive: 79.4 µM [inhibitor, partial curve, poor fit]",–
O=C(c1ccccc1F)N1CCN(C(=O)c2nnn3c2COC(c2ccc(Cl)cc2)C3)CC1 (centres undefined),–,"inconclusive: 50.1 µM [inhibitor, partial curve, poor fit]",–
COc1ccc(-c2noc(-c3cccn3CC(=O)Nc3ccc(C)cc3)n2)cc1F,inactive: -4.83%,–,–
CCOc1cc(-c2noc(-c3ncn4c3COC(c3ccc(F)cc3)C4)n2)ccc1OC (centres undefined),–,active: 22.4 µM,–
CCOc1ccccc1CN1CCC2(CCN([S+](=O)([O-])c3cccc(C(F)(F)F)c3)CC2)Oc2ccccc21,inactive: -21.2%,–,–
Cc1ccc(-n2ncc3c2CCCC3NS(=O)(=O)N2CCCC2)cc1C (centres undefined),–,"inconclusive: 44.7 µM [inhibitor, partial curve, poor fit]",–
COc1ccc(C(=O)N2CCC(n3c(C)cnc3-c3ccncc3)C2)c(OC)c1 (centres undefined),inactive: -3.24%,–,–
COc1cc(OC)cc(-c2onc(C)c2C(=O)NCCCOC(C)C)c1,inactive: -20.1%,–,–
Clc1cc(NCc2cccs2)n2nccc2n1,–,active: 39.8 µM,–
CN1CCC(Cc2ccc(C(=O)NCC3CCCCC3)cc2)CC1,–,"inconclusive: 56.2 µM [inhibitor, partial curve, poor fit]",–
O=C(CN1C(=O)NC2(CCOCC2)C1=O)Nc1cccc(Br)c1,inactive: -9.49%,–,–
Cc1ccccc1C(C(=O)NCc1nc(-c2ncccn2)no1)N(C)C (centres undefined),inactive: 3.52%,–,–
CO[C@H]1C(=O)N(C(C)C)[C@H]1C1CCN(C(=O)C2CC2)CC1,inactive: -2.21%,–,–
COc1ccc(OC)c(NC(=O)c2c(C)oc3ccn(Cc4cccc(F)c4)c(=O)c23)c1,inactive: -12.5%,–,–
O=C(NC1CCCC1)c1cc(-c2cccc(C(F)(F)F)c2)c2nncn2n1,inactive: 0.986%,–,–
CCOCCn1c(=O)n(CCn2cc(Cl)cn2)c2cc(C(=O)O)cnc21,–,–,inactive

Compound,"activity change, negative = cytotoxicity",Potency,outcome
O=C(NCCNC(=O)c1ccc(-c2cccc(C(F)(F)F)c2)cc1)Nc1ccc(Cl)cc1,inactive: -31%,–,–
Cc1ccccc1C(=O)N1CCC2(CC1)CCN(Cc1cccs1)c1ccccc1O2,–,"inconclusive: 39.8 µM [inhibitor, partial curve, poor fit]",–
CCS(=O)(=O)Nc1ccc(C2(C(=O)NCc3ccccc3F)CCCCC2)cc1,–,"inconclusive: 89.1 µM [inhibitor, single point]",–
O=C(CC(c1cccc([N+](=O)[O-])c1)c1c[nH]c2ccccc12)NCCc1ccccc1 (centres undefined),–,active: 31.6 µM,–
Cc1cn2nc(C(=O)N3CCC(NC(=O)c4ccc5ccccc5n4)CC3)cc2c(=O)[nH]1,–,"inconclusive: 89.1 µM [inhibitor, single point]",–
O=C(NC1CCN(CCn2nc3n(c2=O)CCCC3)C1)c1ccccc1Cl (centres undefined),inactive: 0.244%,–,–
CC(C)NC(=O)c1ccnc(-c2nnc3ccc(Nc4ccccc4)nn23)c1,–,"inconclusive: 112 µM [inhibitor, partial curve]",–
Cc1noc(-c2cccc(F)c2)c1C(=O)NCc1cccc2ccccc12,–,"inconclusive: 22.4 µM [inhibitor, full curve, poor fit]",–
CNC(=O)N1CCC(OC2CCN(Cc3ccccc3)CC2)CC1,inactive: 5.74%,–,–
O=C(NC1CCCC1)NC1CCN(C(=O)c2ccc(-c3cccs3)cc2)CC1,–,"inconclusive: 35.5 µM [inhibitor, full curve]",–
CS(=O)(=O)N1CCc2ccc(C(=O)Nc3ccc(F)cc3Cl)cc21,–,"inconclusive: 79.4 µM [inhibitor, partial curve, poor fit]",–
Cc1cc(C)n(Cc2ccc(C(=O)N3CCC(N4C[C@H](O)C[C@H]4C(=O)NC4CCCCC4)CC3)o2)n1,inactive: -1.99%,–,–
CC(C)(Oc1nn(CC2CCOCC2)c2ccccc12)C(=O)Nc1cccnc1,–,"inconclusive: 126 µM [inhibitor, single point]",–
CC(C)CN1CCNC(=O)C1CC(=O)NC(C)(C)Cc1ccc(F)cc1 (centres undefined),–,"inconclusive: 89.1 µM [inhibitor, single point]",–
O=C(c1cccc(Br)c1)N1CCN(c2cc(-c3ccc(F)cc3)[nH]n2)CC1,–,"inconclusive: 50.1 µM [inhibitor, partial curve, poor fit]",–
COc1ccc(CN2CCC3(CNc4ccccc4[S+](=O)([O-])N3)C2)cc1 (centres undefined),–,"inconclusive: 79.4 µM [inhibitor, partial curve, poor fit]",–
O=C(Nc1ncc(-c2cccc(F)c2)c2c1OCC2)c1ccc(Cl)cc1,–,active: 100 µM,–
c1ccc(Nc2cc3c(cn2)CN(Cc2ccccn2)CCN3)cc1,–,"inconclusive: 89.1 µM [inhibitor, partial curve, poor fit]",–
COc1ccc(Cl)cc1S(=O)(=O)N1CCCC(CO)(Cc2cccc(Cl)c2)C1 (centres undefined),–,"inconclusive: 25.1 µM [inhibitor, full curve, poor fit]",–
CN(C)C(=O)c1ccc(-c2ccccc2S(=O)(=O)NC(C)(C)C)s1,–,"inconclusive: 10 µM [inhibitor, full curve]",–
Cc1ccc(CNC(=O)c2c(C)noc2-c2ccc3c(c2)OCO3)o1,inactive: -29%,–,–
COc1ccc(-n2nc(C3CCN(Cc4ccccc4)CC3)[nH]c2=O)cc1,–,"inconclusive: 39.8 µM [inhibitor, full curve, poor fit] and inconclusive: 79.4 µM [inhibitor, single point]",–
